The list shows a part of the results.

This test relates to S. aureus RN4220. In words: growth inhibition call (relative growth <= 0.2). The settings on record: 50 µM.
Take `O=C(NCCCN1CCOCC1)[C@@H]1[C@@H](CO)[C@@H]2Cn3c(cccc3=O)[C@H]1N2C(=O)C1CCCCC1`: the growth inhibition call was “inactive”.
Consider `C[C@H](CO)N1C[C@H](C)[C@H](CN(C)S(=O)(=O)c2cn(C)cn2)Oc2ncc(C#Cc3ccc(C(F)(F)F)cc3)cc2C1=O`, for which the growth inhibition call is “inactive”.
For `C[C@@H]1CN([C@H](C)CO)C(=O)c2cc(NS(=O)(=O)c3cn(C)cn3)ccc2O[C@H]1CN(C)S(=O)(=O)c1cn(C)cn1`, the growth inhibition call is “inactive”.
With `C[C@H]1CCCCO[C@@H](CN(C)C(=O)C2CCCCC2)[C@@H](C)CN([C@@H](C)CO)C(=O)c2cc(NC(=O)Nc3ccc(F)cc3)ccc2O1`, the growth inhibition call is “inactive”.
`O=C(C[C@H]1C[C@@H]2c3cc(NS(=O)(=O)c4ccc(F)cc4)ccc3O[C@@H]2[C@H](CO)O1)NCc1ccccn1`: the growth inhibition call is “inactive”.
In the case of `CO[C@H]1CN(C(=O)c2ccnnc2)[C@H]2COC[C@@H]12`, the growth inhibition call is “inactive”.
Consider `COc1ccc(NC(=O)N(C)C[C@H]2Oc3c(NC(=O)c4cc(C)nn4C)cccc3C(=O)N([C@@H](C)CO)C[C@H]2C)cc1`, for which the growth inhibition call is “inactive”.

Values taken from the antibiotic and cytotoxicity screens of Wong et al. (2023).
